Measured values from article PMC4336329 (PLoS ONE, 2015).
Hit rate of the full screen: of about 310,000 compounds, about 14,000 (4.5%) showed an effect of 50% or more. The effect is printed as a negative number. The list shows a part of the results.

molecular target: human ether-à-go-go-related gene (hERG) potassium channel (human, UniProt Q12809); experiment: primary screen, population patch clamp on CHO cells stably expressing hERG
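Further: peak tail current of the secondary pulse compared with the same well before compound.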

human ether-à-go-go-related gene (hERG) potassium channel, sequence (Q12809 whole entry, looked up): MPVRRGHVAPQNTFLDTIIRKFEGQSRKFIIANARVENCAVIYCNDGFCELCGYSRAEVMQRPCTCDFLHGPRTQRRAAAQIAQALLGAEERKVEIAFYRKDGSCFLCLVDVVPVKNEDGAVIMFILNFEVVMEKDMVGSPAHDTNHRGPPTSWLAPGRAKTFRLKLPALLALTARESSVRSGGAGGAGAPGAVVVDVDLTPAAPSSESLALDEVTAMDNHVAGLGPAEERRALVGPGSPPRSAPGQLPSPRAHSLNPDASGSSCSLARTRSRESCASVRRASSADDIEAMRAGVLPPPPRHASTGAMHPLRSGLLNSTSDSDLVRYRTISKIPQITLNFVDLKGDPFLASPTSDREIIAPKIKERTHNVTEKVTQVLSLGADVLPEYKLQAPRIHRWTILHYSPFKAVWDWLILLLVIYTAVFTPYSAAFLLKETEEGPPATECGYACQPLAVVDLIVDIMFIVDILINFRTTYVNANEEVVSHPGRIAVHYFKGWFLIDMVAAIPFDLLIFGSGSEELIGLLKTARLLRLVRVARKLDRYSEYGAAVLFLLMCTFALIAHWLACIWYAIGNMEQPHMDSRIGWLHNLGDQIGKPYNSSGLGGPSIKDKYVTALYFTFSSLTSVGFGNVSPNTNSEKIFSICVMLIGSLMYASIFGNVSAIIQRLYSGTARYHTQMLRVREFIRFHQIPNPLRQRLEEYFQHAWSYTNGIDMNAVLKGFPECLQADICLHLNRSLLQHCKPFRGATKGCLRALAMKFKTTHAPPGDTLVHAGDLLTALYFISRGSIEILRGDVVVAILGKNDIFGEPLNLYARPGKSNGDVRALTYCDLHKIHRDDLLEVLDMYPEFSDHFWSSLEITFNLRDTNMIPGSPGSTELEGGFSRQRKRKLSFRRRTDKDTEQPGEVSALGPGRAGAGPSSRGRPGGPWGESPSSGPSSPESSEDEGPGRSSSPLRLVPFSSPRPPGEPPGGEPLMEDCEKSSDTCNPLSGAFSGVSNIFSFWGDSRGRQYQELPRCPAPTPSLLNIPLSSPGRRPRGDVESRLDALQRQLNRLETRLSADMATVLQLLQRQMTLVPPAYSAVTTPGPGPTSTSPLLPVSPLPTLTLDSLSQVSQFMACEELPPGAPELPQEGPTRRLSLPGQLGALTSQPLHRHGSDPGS

| Compound | hERG current change (%, negative = inhibition) at 10uM |
| --- | --- |
| COC(=O)C1=CN(C2CC2)C=C(C(=O)OC)C1c1ccc(C(=O)OC)cc1 | 17.9% |
| Cc1ccc(NC(=O)c2cc(S(=O)(=O)N3CCOCC3)cn2C)cc1F | -20% |
| CC(=O)OCC1(C)CN(c2ccccc2)N(C(C)=O)C1=O (stereo not shown) | 2.34% |
| C=CCN1C(=S)CC(c2ccccc2)=Nc2ccccc21 | 15.3% |
| O=C1Cn2c(nc3ccccc32)N1c1ccccc1F | -4.86% |
| COc1cccc(N2CCN(C(C)C(=O)NC34CC5CC(CC(C5)C3)C4)CC2)c1 (stereo not shown) | -6.39% |
| CC1CN(C(=O)COC(=O)CSc2ccc(C(N)=O)cc2[N+](=O)[O-])CC(C)O1 (stereo not shown) | -2.1% |
| COc1ccc(N2CC(C(=O)N/N=C/c3c[nH]c4ccccc34)CC2=O)cc1 (stereo not shown) | 7.94% |
| CN(C(=O)COC(=O)c1sc2ccccc2c1Cl)C1CCCCC1 | -4.05% |
| CC1C(=O)N2CCCc3cc(NS(C)(=O)=O)cc1c32 (stereo not shown) | 10.3% |
| COC(=O)CC1(C(=O)OC)Oc2ccc(Br)cc2C(=O)N1c1cc(Cl)c(Cl)cc1Cl (stereo not shown) | 11.6% |
| CCc1ccc(C(=O)CSc2n[nH]c(-c3ccncc3)n2)cc1 | 11.2% |
| COc1ccc(C(=O)c2oc3ccccc3c2NC(C)=O)cc1 | 0.829% |
| CCCC(CCC)C(=O)Nc1cccc(C(=O)O)c1 | -3.46% |
| CC1CCN(c2ccc3nnc(CCC(=O)Nc4ccc(F)cc4)n3n2)CC1 | -39.6% |
| COc1ccc(C(=O)c2cnc3cc4c(cc3c2C)OCO4)cc1 | -24.7% |
| Cn1cc(Cl)c(-c2n[nH]c(=S)n2-c2ccc(F)cc2)n1 | 15.4% |
| O=C(c1cc(-c2ccccc2)nc2ccccc12)N1N=C(C(F)F)CC1(O)C(F)F (stereo not shown) | -13.2% |
| CN1C(=O)CSc2ccc(C(=O)O)cc21 | -3.84% |
| CCN(CC(=O)Nc1ccccc1OC)C(=O)CSCc1ccc(C)cc1 | -2.36% |
| COC(=O)c1[nH]c2cc(OC)ccc2c1N | 16% |
| COc1cc(CN2CCNC(=O)C2CC(=O)N(C)CCC2CCOCC2)cc(OC)c1 (stereo not shown) | 14.6% |
| COc1ccccc1NC(=O)CN(c1ccccc1OC)S(=O)(=O)c1ccccc1 | 2.41% |
| Cc1nc(SCC(=O)c2ccc(F)cc2)c([N+](=O)[O-])[nH]1 | 27.3% |
| COc1ccccc1NC(=O)C1CCN(c2ncccn2)CC1 | -9.55% |
